Assay results: PMC5892938
This is one part of the list. At the low end of the ranking the order means little.

Target: GST-SBP-SLBP (stem-loop binding protein) (UniProt Q14493)
Assay: targeted RNA Bind-n-Seq;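 note: DESeq read counts versus GST-SBP nonspecific binding control pulldown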
Conditions: RBNS binding buffer: 25 mM Tris pH 7.5, 150 mM KCl, 3 mM MgCl2, 0.1% Tween, 0.5 mg/mL BSA, 1 mM DTT; 27 nM protein, 750 pM RNA pool; temperature not stated; high values mean tight binding

Sequence | binding signal (log2 fold change)
GGUCACGUCUCAAUCAACUCUACAGAGGGGGGGAAAACCCCUUUACCCUCACUUUCAACAGCUCGCAGUCAAG | -0.272
GGUCACGUCUCAAUCAACUCCCAAGAGGGGGGGAAAACCCCUUUACCCUCACUUUCAACAGCUCGCAGUCAAG | -0.0411
GGUCACGUCUCAAUCAACUCAUAAGAGGGGGGGAAAACCCCUUUGCCCUCCAUUUCAACAGCUCGCAGUCAAG | 0.125
GGUCACGUCUCAAUCAACUCUUCGUCAGGAGUUUACUCCUGUUAUUUCAACAGCUCGCAGUCAAG | 0.027
GGUCACGUCUCAAUCAACUCAACUCCAGGAGUUUCCUCCUGCUAUUUCAACAGCUCGCAGUCAAG | -0.0546
GGUCACGUCUCAAUCAACUCAUCCCCCAGGGAAAUCCCUGGUUAAUUCAACAGCUCGCAGUCAAG | 0.368
GGUCACGUCUCAAUCAACUCAUCCUCAGGAGUUUGCUCCUGUUUUUUCAACAGCUCGCAGUCAAG | 0.00205
GGUCACGUCUCAAUCAACUCUAUGGAGGGGGGGAAAACCCCUUUACCCUCAAACUCAACAGCUCGCAGUCAAG | -0.0165
GGUCACGUCUCAAUCAACUCUUUCCCAGGAGUUUACUCCUGCUUAUUCAACAGCUCGCAGUCAAG | 0.112
GGUCACGUCUCAAUCAACUCUUCGUCCAGGGAAAUCCCUGGCUAUUUCAACAGCUCGCAGUCAAG | 0.103
GGUCACGUCUCAAUCAACUCAUUCUCAGGAGUUUACUCCUGUUUUCUCAACAGCUCGCAGUCAAG | 0.0629
GGUCACGUCUCAAUCAACUCCCCAGAGGGGGGGAAAACCCCUUUACCCUCGUUUUCAACAGCUCGCAGUCAAG | 0.202
GGUCACGUCUCAAUCAACUCAUUCUCAGGAGUUUACUCCUGCAUUCUCAACAGCUCGCAGUCAAG | 0.256
GGUCACGUCUCAAUCAACUCCUUCGAGGGGGGGAAAACCCCUUUACCCUCAAUCUCAACAGCUCGCAGUCAAG | -0.103
GGUCACGUCUCAAUCAACUCUUUUCCAGGAGUUUCCUCCUGUAAUUUCAACAGCUCGCAGUCAAG | 0.0545
GGUCACGUCUCAAUCAACUCAUUCCCAGGAGUUUACUCCUGUUUACUCAACAGCUCGCAGUCAAG | 0.0672
GGUCACGUCUCAAUCAACUCAAUGUCAGGAGUUUUCUCCUGUUUUCUCAACAGCUCGCAGUCAAG | -0.141
GGUCACGUCUCAAUCAACUCCCUAGAGGGGGGGAAAACCCCUUUGCCCUCAACAUCAACAGCUCGCAGUCAAG | -0.136
GGUCACGUCUCAAUCAACUCAUCCCCAGGAGUUUACUCCUGCAUUCUCAACAGCUCGCAGUCAAG | 0.181
GGUCACGUCUCAAUCAACUCAAUUUCAGGAGUUUCCUCCUGUUAACUCAACAGCUCGCAGUCAAG | 0.0294
GGUCACGUCUCAAUCAACUCUAUCCCAGGAGUUUCCUCCUGCAAUCUCAACAGCUCGCAGUCAAG | 0.0472
GGUCACGUCUCAAUCAACUCGUCUUCAGGAGUUUUCUCCUGCUUUUUCAACAGCUCGCAGUCAAG | -0.0581
GGUCACGUCUCAAUCAACUCUACUCCAGGAGUUUUCUCCUGUAAACUCAACAGCUCGCAGUCAAG | 0.0336
GGUCACGUCUCAAUCAACUCUUUCUCCAGGGAAAUCCCUGGUUUACUCAACAGCUCGCAGUCAAG | -0.0972
GGUCACGUCUCAAUCAACUCUUCUUCCAGGGAAAACCCUGGUUAAUUCAACAGCUCGCAGUCAAG | -0.2

Sequence | binding signal (log2 fold change)
GGUCACGUCUCAAUCAACUCAUUUCCAGGAGUUUUCUCCUGCUAUUUCAACAGCUCGCAGUCAAG | 0.0669
GGUCACGUCUCAAUCAACUCUCAAGAGGGGGGGAAAACCCCUUUGCCCUCAAAUUCAACAGCUCGCAGUCAAG | -0.398
GGUCACGUCUCAAUCAACUCAGAAGAGGGGGGGAAAACCCCUUUGCCCUCACAAUCAACAGCUCGCAGUCAAG | -0.106
GGUCACGUCUCAAUCAACUCACAAGAGGGGGGGAAAACCCCUUUGCCCUCGUCAUCAACAGCUCGCAGUCAAG | 0.00619
GGUCACGUCUCAAUCAACUCAGUUCCAGGAGUUUCCUCCUGCUUAUUCAACAGCUCGCAGUCAAG | 0.0333
GGUCACGUCUCAAUCAACUCAUUUCCAGGAGUUUACUCCUGCAUUCUCAACAGCUCGCAGUCAAG | 0.00418
GGUCACGUCUCAAUCAACUCAAUCCCCAGGGAAAACCCUGGUUUUUUCAACAGCUCGCAGUCAAG | -0.148
GGUCACGUCUCAAUCAACUCAAUAGAGGGGGGGAAAACCCCUUUACCCUCCGUAUCAACAGCUCGCAGUCAAG | -0.281
GGUCACGUCUCAAUCAACUCUUCUCCAGGAGUUUCCUCCUGCAUAUUCAACAGCUCGCAGUCAAG | 0.0457
GGUCACGUCUCAAUCAACUCAAUUCCAGGAGUUUUCUCCUGUAUACUCAACAGCUCGCAGUCAAG | 0.0688
GGUCACGUCUCAAUCAACUCUAUUCCCAGGGAAAACCCUGGCUAACUCAACAGCUCGCAGUCAAG | 0.0561
GGUCACGUCUCAAUCAACUCAUUCUCCAGGGAAAUCCCUGGCUAUUUCAACAGCUCGCAGUCAAG | 0.0272
GGUCACGUCUCAAUCAACUCAUCUUCAGGAGUUUACUCCUGCUUUCUCAACAGCUCGCAGUCAAG | 0.0445
GGUCACGUCUCAAUCAACUCUUUUCCCAGGGAAAUCCCUGGUUUUUUCAACAGCUCGCAGUCAAG | -0.322
GGUCACGUCUCAAUCAACUCCAUGGAGGGGGGGAAAACCCCUUUACCCUCAAUAUCAACAGCUCGCAGUCAAG | -0.0439
GGUCACGUCUCAAUCAACUCACACGAGGGGGGGAAAACCCCUUUACCCUCACUUUCAACAGCUCGCAGUCAAG | -0.371
GGUCACGUCUCAAUCAACUCAAUUUCAGGAGUUUGCUCCUGCUUUCUCAACAGCUCGCAGUCAAG | -0.0532
GGUCACGUCUCAAUCAACUCAAUUUCCAGGGAAAACCCUGGCUAUCUCAACAGCUCGCAGUCAAG | -0.264
GGUCACGUCUCAAUCAACUCCUUAGAGGGGGGGAAAACCCCUUUGCCCUCAAAUUCAACAGCUCGCAGUCAAG | -0.151
GGUCACGUCUCAAUCAACUCUAUCUCCAGGGAAACCCCUGGCUAUCUCAACAGCUCGCAGUCAAG | 0.109
GGUCACGUCUCAAUCAACUCACACGAGGGGGGGAAAACCCCUUUACCCUCUCUAUCAACAGCUCGCAGUCAAG | 0.553
GGUCACGUCUCAAUCAACUCAAUCCCAGGAGUUUUCUCCUGCAAUUUCAACAGCUCGCAGUCAAG | 0.0379
GGUCACGUCUCAAUCAACUCAACUUCAGGAGUUUUCUCCUGCAAAUUCAACAGCUCGCAGUCAAG | 0.0343
GGUCACGUCUCAAUCAACUCUAUUUCCAGGGAAAGCCCUGGCUUACUCAACAGCUCGCAGUCAAG | 0.11
GGUCACGUCUCAAUCAACUCUAUGUCCAGGGAAAACCCUGGUUUUCUCAACAGCUCGCAGUCAAG | -0.204

Sequence | binding signal (log2 fold change)
GGUCACGUCUCAAUCAACUCUAUAGAGGGGGGGAAAACCCCUUUACCCUCCUAAUCAACAGCUCGCAGUCAAG | -0.0808
GGUCACGUCUCAAUCAACUCACUCGAGGGGGGGAAAACCCCUUUACCCUCAUUCUCAACAGCUCGCAGUCAAG | 0.248
GGUCACGUCUCAAUCAACUCAAUCCCAGGAGUUUGCUCCUGCAAUUUCAACAGCUCGCAGUCAAG | -0.0397
GGUCACGUCUCAAUCAACUCAGUUUCCAGGGAAAACCCUGGCUUUUUCAACAGCUCGCAGUCAAG | -0.195
GGUCACGUCUCAAUCAACUCUUUCCCCAGGGAAAACCCUGGUAGUCUCAACAGCUCGCAGUCAAG | -0.0991
GGUCACGUCUCAAUCAACUCUAUAGAGGGGGGGAAAACCCCUUUGCCCUCACAUUCAACAGCUCGCAGUCAAG | -0.274
GGUCACGUCUCAAUCAACUCAUUCCCAGGAGUUUCCUCCUGCUUUUUCAACAGCUCGCAGUCAAG | 0.0387
GGUCACGUCUCAAUCAACUCUACUUCAGGAGUUUACUCCUGUUAAUUCAACAGCUCGCAGUCAAG | 0.111
GGUCACGUCUCAAUCAACUCAUGUCCAGGAGUUUCCUCCUGUUUAUUCAACAGCUCGCAGUCAAG | -0.108
GGUCACGUCUCAAUCAACUCUAUUUCCAGGGAAAGCCCUGGCAAUUUCAACAGCUCGCAGUCAAG | -0.1
GGUCACGUCUCAAUCAACUCAGUUCCAGGAGUUUACUCCUGCUUUUUCAACAGCUCGCAGUCAAG | -0.248
GGUCACGUCUCAAUCAACUCAACUCCAGGAGUUUGCUCCUGCUAUCUCAACAGCUCGCAGUCAAG | 0.16
GGUCACGUCUCAAUCAACUCUAUGUCAGGAGUUUUCUCCUGUUUACUCAACAGCUCGCAGUCAAG | -0.0305
GGUCACGUCUCAAUCAACUCAUUAGAGGGGGGGAAAACCCCUUUGCCCUCCAAUUCAACAGCUCGCAGUCAAG | 0.00165
GGUCACGUCUCAAUCAACUCUAUCCCCAGGGAAAUCCCUGGCUAUCUCAACAGCUCGCAGUCAAG | 0.27
GGUCACGUCUCAAUCAACUCUCCAGAGGGGGGGAAAACCCCUUUGCCCUCCAUUUCAACAGCUCGCAGUCAAG | 0.536
GGUCACGUCUCAAUCAACUCAUUUCCAGGAGUUUCCUCCUGCAUUUUCAACAGCUCGCAGUCAAG | 0.00453
GGUCACGUCUCAAUCAACUCAUCCCCCAGGGAAAACCCUGGCAAACUCAACAGCUCGCAGUCAAG | 0.288
GGUCACGUCUCAAUCAACUCUUUUCCAGGAGUUUCCUCCUGUAUACUCAACAGCUCGCAGUCAAG | 0.0199
GGUCACGUCUCAAUCAACUCUUCGUCCAGGGAAAUCCCUGGUAUUCUCAACAGCUCGCAGUCAAG | -0.114
GGUCACGUCUCAAUCAACUCAUUUUCAGGAGUUUGCUCCUGCUUACUCAACAGCUCGCAGUCAAG | 0.0149
GGUCACGUCUCAAUCAACUCAUACGAGGGGGGGAAAACCCCUUUACCCUCACCUUCAACAGCUCGCAGUCAAG | 0.226
GGUCACGUCUCAAUCAACUCAUCAGAGGGGGGGAAAACCCCUUUGCCCUCCAAUUCAACAGCUCGCAGUCAAG | 0.23
